# Assay results: publication PMC9911399, “Two distinct binding modes provide the RNA-binding protein RbFox with extraordinary sequence specificity”
# Substitutions are numbered along the chain they refer to; changes in the protein carry UniProt numbers. The list shows a part of the results.
# T1: RBFOX1 RRM (Homo sapiens, UniProt Q9NWB1 109-208)
# T1 sequence: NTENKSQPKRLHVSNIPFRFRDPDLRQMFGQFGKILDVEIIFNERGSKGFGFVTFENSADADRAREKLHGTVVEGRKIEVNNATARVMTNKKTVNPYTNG
# B1: AACCAAA (DNA:RNA)
# RNA: GGGAGACCGGAAUUCAGAUUGUCCAACCAAAUUAAAUCCCGUCGUAGCCACCA
# DNA 1: CAATCTGAATTCCGGTCTCCC
# DNA 2: TGGTGGCTACGACGGGATT
# B2: GAUAGCC (DNA:RNA)
# RNA: B1 RNA with A25G, C27U, C28A, A29G, A30C, A31C
# DNA 1: CAATCTGAATTCCGGTCTCCC
# DNA 2: TGGTGGCTACGACGGGATT
# B3: AAAGUCU (DNA:RNA)
# RNA: B1 RNA with C27A, C28G, A29U, A30C, A31U
# DNA 1: CAATCTGAATTCCGGTCTCCC
# DNA 2: TGGTGGCTACGACGGGATT
# B4: ACGGUGU (DNA:RNA)
# RNA: B1 RNA with A26C, C27G, C28G, A29U, A30G, A31U
# DNA 1: CAATCTGAATTCCGGTCTCCC
# DNA 2: TGGTGGCTACGACGGGATT
# B5: UGAGAUU (DNA:RNA)
# RNA: B1 RNA with A25U, A26G, C27A, C28G, A30U, A31U
# DNA 1: CAATCTGAATTCCGGTCTCCC
# DNA 2: TGGTGGCTACGACGGGATT
# B6: GUGCGCC (DNA:RNA)
# RNA: B1 RNA with A25G, A26U, C27G, A29G, A30C, A31C
# DNA 1: CAATCTGAATTCCGGTCTCCC
# DNA 2: TGGTGGCTACGACGGGATT
# B7: UAGAUAU (DNA:RNA)
# RNA: B1 RNA with A25U, C27G, C28A, A29U, A31U
# DNA 1: CAATCTGAATTCCGGTCTCCC
# DNA 2: TGGTGGCTACGACGGGATT
# B8: CGAGACC (DNA:RNA)
# RNA: B1 RNA with A25C, A26G, C27A, C28G, A30C, A31C
# DNA 1: CAATCTGAATTCCGGTCTCCC
# DNA 2: TGGTGGCTACGACGGGATT
# B9: CUCCAAU (DNA:RNA)
# RNA: B1 RNA with A25C, A26U, A31U
# DNA 1: CAATCTGAATTCCGGTCTCCC
# DNA 2: TGGTGGCTACGACGGGATT
# B10: CGUGACU (DNA:RNA)
# RNA: B1 RNA with A25C, A26G, C27U, C28G, A30C, A31U
# DNA 1: CAATCTGAATTCCGGTCTCCC
# DNA 2: TGGTGGCTACGACGGGATT
# B11: UUCCUUC (DNA:RNA)
# RNA: B1 RNA with A25U, A26U, A29U, A30U, A31C
# DNA 1: CAATCTGAATTCCGGTCTCCC
# DNA 2: TGGTGGCTACGACGGGATT
# B12: GAUGGCG (DNA:RNA)
# RNA: B1 RNA with A25G, C27U, C28G, A29G, A30C, A31G
# DNA 1: CAATCTGAATTCCGGTCTCCC
# DNA 2: TGGTGGCTACGACGGGATT
# B13: CGGAAAC (DNA:RNA)
# RNA: B1 RNA with A25C, A26G, C27G, C28A, A31C
# DNA 1: CAATCTGAATTCCGGTCTCCC
# DNA 2: TGGTGGCTACGACGGGATT
# B14: GUGAGUA (DNA:RNA)
# RNA: B1 RNA with A25G, A26U, C27G, C28A, A29G, A30U
# DNA 1: CAATCTGAATTCCGGTCTCCC
# DNA 2: TGGTGGCTACGACGGGATT
# B15: CUUUGUC (DNA:RNA)
# RNA: GGGAGACCGGAAUUCAGAUUGUCCCUUUGUCUUAAAUCCCGUCGUAGCCACCA
# DNA 1: CAATCTGAATTCCGGTCTCCC
# DNA 2: TGGTGGCTACGACGGGATT
# B16: AUCCACG (DNA:RNA)
# RNA: B1 RNA with A26U, A30C, A31G
# DNA 1: CAATCTGAATTCCGGTCTCCC
# DNA 2: TGGTGGCTACGACGGGATT
# B17: AUAGUCU (DNA:RNA)
# RNA: B1 RNA with A26U, C27A, C28G, A29U, A30C, A31U
# DNA 1: CAATCTGAATTCCGGTCTCCC
# DNA 2: TGGTGGCTACGACGGGATT
# B18: CGGCUGU (DNA:RNA)
# RNA: B1 RNA with A25C, A26G, C27G, A29U, A30G, A31U
# DNA 1: CAATCTGAATTCCGGTCTCCC
# DNA 2: TGGTGGCTACGACGGGATT
# B19: UCUGUGC (DNA:RNA)
# RNA: B15 RNA with C25U, U26C, U28G, G29U, U30G
# DNA 1: CAATCTGAATTCCGGTCTCCC
# DNA 2: TGGTGGCTACGACGGGATT
# B20: AAACGAA (DNA:RNA)
# RNA: B1 RNA with C27A, A29G
# DNA 1: CAATCTGAATTCCGGTCTCCC
# DNA 2: TGGTGGCTACGACGGGATT
# B21: ACACGGC (DNA:RNA)
# RNA: B1 RNA with A26C, C27A, A29G, A30G, A31C
# DNA 1: CAATCTGAATTCCGGTCTCCC
# DNA 2: TGGTGGCTACGACGGGATT
# B22: CUGCAGU (DNA:RNA)
# RNA: B1 RNA with A25C, A26U, C27G, A30G, A31U
# DNA 1: CAATCTGAATTCCGGTCTCCC
# DNA 2: TGGTGGCTACGACGGGATT
# B23: GAGUGUG (DNA:RNA)
# RNA: B15 RNA with C25G, U26A, U27G, C31G
# DNA 1: CAATCTGAATTCCGGTCTCCC
# DNA 2: TGGTGGCTACGACGGGATT
# B24: UACGUCC (DNA:RNA)
# RNA: B1 RNA with A25U, C28G, A29U, A30C, A31C
# DNA 1: CAATCTGAATTCCGGTCTCCC
# DNA 2: TGGTGGCTACGACGGGATT
# B25: UAAAAGC (DNA:RNA)
# RNA: B1 RNA with A25U, C27A, C28A, A30G, A31C
# DNA 1: CAATCTGAATTCCGGTCTCCC
# DNA 2: TGGTGGCTACGACGGGATT
# B26: CCAUACG (DNA:RNA)
# RNA: B15 RNA with U26C, U27A, G29A, U30C, C31G
# DNA 1: CAATCTGAATTCCGGTCTCCC
# DNA 2: TGGTGGCTACGACGGGATT
# B27: ACCAUAC (DNA:RNA)
# RNA: B1 RNA with A26C, C28A, A29U, A31C
# DNA 1: CAATCTGAATTCCGGTCTCCC
# DNA 2: TGGTGGCTACGACGGGATT
# B28: AGGAGGC (DNA:RNA)
# RNA: B15 RNA with C25A, U26G, U27G, U28A, U30G
# DNA 1: CAATCTGAATTCCGGTCTCCC
# DNA 2: TGGTGGCTACGACGGGATT
# B29: GUCAUUC (DNA:RNA)
# RNA: B15 RNA with C25G, U27C, U28A, G29U
# DNA 1: CAATCTGAATTCCGGTCTCCC
# DNA 2: TGGTGGCTACGACGGGATT
# B30: GGGUUGG (DNA:RNA)
# RNA: B15 RNA with C25G, U26G, U27G, G29U, U30G, C31G
# DNA 1: CAATCTGAATTCCGGTCTCCC
# DNA 2: TGGTGGCTACGACGGGATT
# B31: CUGGUUC (DNA:RNA)
# RNA: B15 RNA with U27G, U28G, G29U
# DNA 1: CAATCTGAATTCCGGTCTCCC
# DNA 2: TGGTGGCTACGACGGGATT
# Molecular target: T1, RBFOX1 RRM
# Assay: EMSA; HiTS-Eq, 1 nM pool, 10 min; buffer printed only for the single-RNA assays: 10 mM Tris pH 7.5, 150 mM NaCl, 3.4 mM EDTA, 0.001% NP-40, 30 C
# Settings: tags: His6 N-terminal (pET28a); label: 5' 32P
# Method in brief: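 Purified wild-type or mutant RbFox RRM at increasing concentrations was equilibrated with 1 nM of 5′-radiolabelled RNA carrying 7 randomized nucleotides for 10 min in 50 µL. Unbound RNA was separated by 8% native PAGE and sequenced. Relative association constants came from read-count changes of each RNA species compared with the control reaction, normalised to the cognate motif.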
row,Binder,binding signal
1,B1,0.000547 KA relative to UGCAUGU
2,B2,0.00944 KA relative to UGCAUGU
3,B3,0.00793 KA relative to UGCAUGU
4,B4,0.0173 KA relative to UGCAUGU
5,B5,0.0198 KA relative to UGCAUGU
6,B6,0.0184 KA relative to UGCAUGU
7,B7,0.00788 KA relative to UGCAUGU
8,B8,0.00836 KA relative to UGCAUGU
9,B9,0.00173 KA relative to UGCAUGU
10,B10,0.0122 KA relative to UGCAUGU
11,B11,0.0078 KA relative to UGCAUGU
12,B12,0.027 KA relative to UGCAUGU
13,B13,0.0206 KA relative to UGCAUGU
14,B14,0.0113 KA relative to UGCAUGU
15,B15,0.0202 KA relative to UGCAUGU
16,B16,0.0022 KA relative to UGCAUGU

row,Binder,binding signal
1,B17,0.00479 KA relative to UGCAUGU
2,B18,0.0179 KA relative to UGCAUGU
3,B19,0.0224 KA relative to UGCAUGU
4,B20,0.00334 KA relative to UGCAUGU
5,B21,0.00691 KA relative to UGCAUGU
6,B22,0.0173 KA relative to UGCAUGU
7,B23,0.0206 KA relative to UGCAUGU
8,B24,0.00511 KA relative to UGCAUGU
9,B25,0.004 KA relative to UGCAUGU
10,B26,0.00177 KA relative to UGCAUGU
11,B27,0.000123 KA relative to UGCAUGU
12,B28,0.0129 KA relative to UGCAUGU
13,B29,0.00982 KA relative to UGCAUGU
14,B30,0.0265 KA relative to UGCAUGU
15,B31,0.0321 KA relative to UGCAUGU
